According to paper PMC5651818, “VPS18 recruits VPS41 to the human HOPS complex via a RING–RING interaction” (Biochemical Journal, 2017):
These are yes or no findings as the source states them, for the method shown. Binding seen in cells or lysates may run through a third protein. Some binding calls cover weakened binding; strength is not graded here. Sequences can lack the tags named with a protein.

What was measured:
[1] = molecular target: T1, GST-tagged VPS18 RING domain (residues 842–973) (human) (UniProt Q9P253); assay: pull-down; 0.5 nmol purified GST-tagged bait on magnetic glutathione beads; prey myc-tagged, wheat germ cell-free expression reaction; 4°C, 60 min; 20 mM Tris, 200 mM NaCl, 0.1% NP-40, 1 mM DTT, 1 mM EDTA; anti-myc immunoblot; only the target purified
T1 sequence: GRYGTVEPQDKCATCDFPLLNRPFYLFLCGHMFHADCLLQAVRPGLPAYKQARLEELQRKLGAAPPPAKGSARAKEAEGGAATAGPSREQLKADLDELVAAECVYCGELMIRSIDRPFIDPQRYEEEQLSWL

[2] = molecular target: T2, GST-tagged VPS41 RING domain (residues 778–854) (human) (UniProt P49754); assay: as above
T2 sequence: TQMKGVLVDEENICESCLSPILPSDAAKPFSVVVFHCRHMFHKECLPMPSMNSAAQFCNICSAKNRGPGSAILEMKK

B1: myc-tagged full-length VPS41 (protein, UniProt P49754 1-854)
chain: MAEAEEQETGSLEESTDESEEEESEEEPKLKYERLSNGVTEILQKDAASCMTVHDKFLALGTHYGKVYLLDVQGNITQKFDVSPVKINQISLDESGEHMGVCSEDGKVQVFGLYSGEEFHETFDCPIKIIAVHPHFVRSSCKQFVTGGKKLLLFERSWMNRWKSAVLHEGEGNIRSVKWRGHLIAWANNMGVKIFDIISKQRITNVPRDDISLRPDMYPCSLCWKDNVTLIIGWGTSVKVCSVKERHASEMRDLPSRYVEIVSQFETEFYISGLAPLCDQLVVLSYVKEISEKTEREYCARPRLDIIQPLSETCEEISSDALTVRGFQENECRDYHLEYSEGESLFYIVSPRDVVVAKERDQDDHIDWLLEKKKYEEALMAAEISQKNIKRHKILDIGLAYINHLVERGDYDIAARKCQKILGKNAALWEYEVYKFKEIGQLKAISPYLPRGDPVLKPLIYEMILHEFLESDYEGFATLIREWPGDLYNNSVIVQAVRDHLKKDSQNKTLLKTLAELYTYDKNYGNALEIYLTLRHKDVFQLIHKHNLFSSIKDKIVLLMDFDSEKAVDMLLDNEDKISIKKVVEELEDRPELQHVYLHKLFKRDHHKGQRYHEKQISLYAEYDRPNLLPFLRDSTHCPLEKALEICQQRNFVEETVYLLSRMGNSRSALKMIMEELHDVDKAIEFAKEQDDGELWEDLILYSIDKPPFITGLLNNIGTHVDPILLIHRIKEGMEIPNLRDSLVKILQDYNLQILLREGCKKILVADSLSLLKKMHRTQMKGVLVDEENICESCLSPILPSDAAKPFSVVVFHCRHMFHKECLPMPSMNSAAQFCNICSAKNRGPGSAILEMKK
- binding [1]: binds
- binding [2]: no binding

B2: myc-tagged full-length VPS18 (protein, UniProt Q9P253 1-973)
chain: MASILDEYENSLSRSAVLQPGCPSVGIPHSGYVNAQLEKEVPIFTKQRIDFTPSERITSLVVSSNQLCMSLGKDTLLRIDLGKANEPNHVELGRKDDAKVHKMFLDHTGSHLLIALSSTEVLYVNRNGQKVRPLARWKGQLVESVGWNKALGTESSTGPILVGTAQGHIFEAELSASEGGLFGPAPDLYFRPLYVLNEEGGPAPVCSLEAERGPDGRSFVIATTRQRLFQFIGRAAEGAEAQGFSGLFAAYTDHPPPFREFPSNLGYSELAFYTPKLRSAPRAFAWMMGDGVLYGALDCGRPDSLLSEERVWEYPEGVGPGASPPLAIVLTQFHFLLLLADRVEAVCTLTGQVVLRDHFLEKFGPLKHMVKDSSTGQLWAYTERAVFRYHVQREARDVWRTYLDMNRFDLAKEYCRERPDCLDTVLAREADFCFRQRRYLESARCYALTQSYFEEIALKFLEARQEEALAEFLQRKLASLKPAERTQATLLTTWLTELYLSRLGALQGDPEALTLYRETKECFRTFLSSPRHKEWLFASRASIHELLASHGDTEHMVYFAVIMQDYERVVAYHCQHEAYEEALAVLARHRDPQLFYKFSPILIRHIPRQLVDAWIEMGSRLDARQLIPALVNYSQGGEVQQVSQAIRYMEFCVNVLGETEQAIHNYLLSLYARGRPDSLLAYLEQAGASPHRVHYDLKYALRLCAEHGHHRACVHVYKVLELYEEAVDLALQVDVDLAKQCADLPEEDEELRKKLWLKIARHVVQEEEDVQTAMACLASCPLLKIEDVLPFFPDFVTIDHFKEAICSSLKAYNHHIQELQREMEEATASAQRIRRDLQELRGRYGTVEPQDKCATCDFPLLNRPFYLFLCGHMFHADCLLQAVRPGLPAYKQARLEELQRKLGAAPPPAKGSARAKEAEGGAATAGPSREQLKADLDELVAAECVYCGELMIRSIDRPFIDPQRYEEEQLSWL
- binding [1]: no binding
- binding [2]: binds

B3: myc-tagged VPS18 RING domain alone (residues 842–973) (domain or fragment, UniProt Q9P253 842-973)
chain: GRYGTVEPQDKCATCDFPLLNRPFYLFLCGHMFHADCLLQAVRPGLPAYKQARLEELQRKLGAAPPPAKGSARAKEAEGGAATAGPSREQLKADLDELVAAECVYCGELMIRSIDRPFIDPQRYEEEQLSWL
- binding [2]: binds

B4: myc-tagged full-length VPS11 (protein, UniProt Q9H270 1-941)
chain: MAAYLQWRRFVFFDKELVKEPLSNDGAAPGATPASGSAASKFLCLPPGITVCDSGRGSLVFGDMEGQIWFLPRSLQLTGFQAYKLRVTHLYQLKQHNILASVGEDEEGINPLVKIWNLEKRDGGNPLCTRIFPAIPGTEPTVVSCLTVHENLNFMAIGFTDGSVTLNKGDITRDRHSKTQILHKGNYPVTGLAFRQAGKTTHLFVVTTENVQSYIVSGKDYPRVELDTHGCGLRCSALSDPSQDLQFIVAGDECVYLYQPDERGPCFAFEGHKLIAHWFRGYLIIVSRDRKVSPKSEFTSRDSQSSDKQILNIYDLCNKFIAYSTVFEDVVDVLAEWGSLYVLTRDGRVHALQEKDTQTKLEMLFKKNLFEMAINLAKSQHLDSDGLAQIFMQYGDHLYSKGNHDGAVQQYIRTIGKLEPSYVIRKFLDAQRIHNLTAYLQTLHRQSLANADHTTLLLNCYTKLKDSSKLEEFIKKKSESEVHFDVETAIKVLRQAGYYSHALYLAENHAHHEWYLKIQLEDIKNYQEALRYIGKLPFEQAESNMKRYGKILMHHIPEQTTQLLKGLCTDYRPSLEGRSDREAPGCRANSEEFIPIFANNPRELKAFLEHMSEVQPDSPQGIYDTLLELRLQNWAHEKDPQVKEKLHAEAISLLKSGRFCDVFDKALVLCQMHDFQDGVLYLYEQGKLFQQIMHYHMQHEQYRQVISVCERHGEQDPSLWEQALSYFARKEEDCKEYVAAVLKHIENKNLMPPLLVVQTLAHNSTATLSVIRDYLVQKLQKQSQQIAQDELRVRRYREETTRIRQEIQELKASPKIFQKTKCSICNSALELPSVHFLCGHSFHQHCFESYSESDADCPTCLPENRKVMDMIRAQEQKRDLHDQFQHQLKCSNDSFSVIADYFGRGVFNKLTLLTDPPTARLTSSLEAGLQRDLLMHSRRGT
- binding [1]: no binding
- binding [2]: no binding

B5: myc-tagged VPS18 with the C-terminal RING domain removed (residues 1–841) (domain or fragment, UniProt Q9P253 1-841)
chain: MASILDEYENSLSRSAVLQPGCPSVGIPHSGYVNAQLEKEVPIFTKQRIDFTPSERITSLVVSSNQLCMSLGKDTLLRIDLGKANEPNHVELGRKDDAKVHKMFLDHTGSHLLIALSSTEVLYVNRNGQKVRPLARWKGQLVESVGWNKALGTESSTGPILVGTAQGHIFEAELSASEGGLFGPAPDLYFRPLYVLNEEGGPAPVCSLEAERGPDGRSFVIATTRQRLFQFIGRAAEGAEAQGFSGLFAAYTDHPPPFREFPSNLGYSELAFYTPKLRSAPRAFAWMMGDGVLYGALDCGRPDSLLSEERVWEYPEGVGPGASPPLAIVLTQFHFLLLLADRVEAVCTLTGQVVLRDHFLEKFGPLKHMVKDSSTGQLWAYTERAVFRYHVQREARDVWRTYLDMNRFDLAKEYCRERPDCLDTVLAREADFCFRQRRYLESARCYALTQSYFEEIALKFLEARQEEALAEFLQRKLASLKPAERTQATLLTTWLTELYLSRLGALQGDPEALTLYRETKECFRTFLSSPRHKEWLFASRASIHELLASHGDTEHMVYFAVIMQDYERVVAYHCQHEAYEEALAVLARHRDPQLFYKFSPILIRHIPRQLVDAWIEMGSRLDARQLIPALVNYSQGGEVQQVSQAIRYMEFCVNVLGETEQAIHNYLLSLYARGRPDSLLAYLEQAGASPHRVHYDLKYALRLCAEHGHHRACVHVYKVLELYEEAVDLALQVDVDLAKQCADLPEEDEELRKKLWLKIARHVVQEEEDVQTAMACLASCPLLKIEDVLPFFPDFVTIDHFKEAICSSLKAYNHHIQELQREMEEATASAQRIRRDLQELR
- binding [2]: no binding

B6: myc-tagged full-length VPS8 (protein, UniProt Q8N3P4-3 1-1426)
chain: MENEPDHENVEQSLCAKTSEEELNKSFNLEASLSKFSYIDMDKELEFKNDLIDDKEFDIPQVDTPPTLESILNETDDEDESFILEDPTLLNIDTIDSHSYDTSSVASSDSGDRTNLKRKKKLPDSFSLHGSVMRHSLLKGISAQIVSAADKVDAGLPTAIAVSSLIAVGTSHGLALIFDQNQALRLCLGSTSVGGQYGAISALSINNDCSRLLCGFAKGQITMWDLASGKLLRSITDAHPPGTAILHIKFTDDPTLAICNDSGGSVFELTFKRVMGVRTCESRCLFSGSKGEVCCIEPLHSKPELKDHPITQFSLLAMASLTKILVIGLKPSLKVWMTFPYGRMDPSSVPLLAWHFVAVQNYVNPMLAFCRGDVVHFLLVKRDESGAIHVTKQKHLHLYYDLINFTWINSRTVVLLDSVEKLHVIDRQTQEELETVEISEVQLVYNSSHFKSLATGGNVSQALALVGEKACYQSISSYGGQIFYLGTKSVYVMMLRSWRERVDHLLKQDCLTEALALAWSFHEGKAKAVVGLSGDASKRKAIVADRMVEILFHYADRALKKCPDQGKIQVMEQHFQDMVPVIVDYCLLLQRKDLLFSQMYDKLSENSVAKGVFLECLEPYILSDKLVGITPQVMKDLIVHFQDKKLMENVEALIVHMDITSLDIQQVVLMCWENRLYDAMIYVYNRGMNEFISPMEKLFRVIAPPLNAGKTLTDEQVVMGNKLLVYISCCLAGRAYPLGDIPEDLVPLVKNQVFEFLIRLHSAEASPEEEIYPYIRTLLHFDTREFLNVLALTFEDFKNDKQAVEYQQRIVDILLKVMVENSDFTPSQVGCLFTFLARQLAKPDNTLFVNRTLFDQVLEFLCSPDDDSRHSERQQVLLELLQAGGIVQFEESRLIRMAEKAEFYQICEFMYEREHQYDKIIDCYLRDPLREEEVFNYIHNILSIPGHSAEEKQSVWQKAMDHIEELVSLKPCKAAELVATHFSGHIETVIKKLQNQVLLFKFLRSLLDPREGIHVNQELLQISPCITEQFIELLCQFNPTQVIETLQVLECYRLEETIQITQKYQLHEVTAYLLEKKGDIHGAFLIMLERLQSKLQEVTHQGENTKEDPSLKDVEDTMVETIALCQRNSHNLNQQQREALWFPLLEAMMAPQKLSSSAIPHLHSEALKSLTMQVLNSMAAFIALPSILQRILQDPVYGKGKLGEIQGLILGMLDTFNYEQTLLETTTSLLNQDLHWSLCNLRASVTRGLNPKQDYCSICLQQYKRRQEMADEIIVFSCGHLYHSFCLQNKECTVEFEGQTRWTCYKCSSSNKVGKLSENSSEIKKGRITPSQVKMSPSYHQSKGDPTAKKGTSEPVLDPQQIQAFDQLCRLYRGSSRLALLTELSQNRSSESYRPFSGSQSAPAFNSIFQNENFQLQLIPPPVTED
- binding [1]: no binding
